{
  "source": "PubChem BioAssay AID1845209",
  "about": "(Molecular Pharmacology Branch, DTP, NCI, 2023)",
  "system": "NCI-H211 tumor spheroids, viability percent test/control",
  "assay": "Anticancer human tumor NCI-H211 cell line growth inhibition;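 further: spheroids exposed to agents for seven days before readout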",
  "settings": "spheroids with HUVEC and MSC; for viability, T/C: stronger effect = lower value",
  "text": "Multicellular complex tumor spheroid response to DNA repair inhibitors in combination with DNA-damaging drugs\nThis study explores the anticancer activities of DNA-damaging drugs and inhibitors of DNA damage repair, both as single agents and in combinations. Complex tumor spheroids comprised of malignant cells, endothelial cells and mesenchymal stem cells served as an in vitro model for human solid tumors. This model system incorporates physiologically relevant features and patient-derived or established malignant cell lines with clinically relevant genetic alterations from many tumor types. Twenty-six patient-derived or established malignant cell lines were evaluated representing sarcoma, melanoma, small cell lung cancer (SCLC), non-small cell lung cancer (NSCLC), as well as bladder, ovarian and pancreatic cancers. The concentration ranges selected for each drug and investigational agent were based upon clinically achievable concentrations if the clinical Cmax of the agent was known.\nCompounds. The drugs and compounds olaparib (NSC753686), talazoparib (NSC767125), berzosertib (NSC777718), elimusertib (NSC800525), nedisertib (NSC802822), VX-984 (NSC792969), AZD-1390 (NSC803789), temozolomide (NSC362856), topotecan (NSC609699), trabectedin (NSC813783), staurosporine (NSC755774), and gemcitabine (NSC613327) were obtained from the National Cancer Institute (NCI) Developmental Therapeutics Program Chemical Repository. The FDA-approved anticancer drug set is available from the Developmental Therapeutics Program at https://dtp.cancer.gov/organization/dscb/obtaining/available_plates.htm. […] The stock solutions were prepared in dimethyl sulfoxide (DMSO, Sigma-Aldrich, St. Louis, MO, cat. D2650) at 400-fold the tested concentration and stored at -70 degrees C. Prior to their use, the stock solutions were diluted in fresh medium and the final DMSO concentration in the assay was 0.25% (v/v). All drugs and investigational agents were tested over a range starting from a high concentration at or near the clinical Cmax and decreasing in half-log increments. If the clinical Cmax for an agent had not been determined, the highest concentration tested was 10 microM.\nCell Lines. The patient-derived cancer cell (PDC) lines: 156681-154-R-J1-PDC, 283228-195-R-J1-PDC, 287954-098-R-J1-PDC, 292921-168-R-J2-PDC, 349418-098-R-PDC, 425362-245-T-J1-PDC, 556581-035-R-J1-PDC, and BL0293-F563-PDC were received from the NCI Patient-Derived Models Repository (PDMR, https://pdmr.cancer.gov). The established cell lines HS-SY-2 (RRID:CVCL_8719), MPNST, and SYO-1 (RRID:CVCL_7146) were obtained from the Sloan Kettering Institute. The alveolar soft parts sarcoma cell line ASPS-1 (RRID:CVCL_S738) was established at the NCI and grown from internal seed stocks. The following established cell lines were purchased from the American Type Culture Collection (ATCC, Manassas, VA): G-401 (ATCC, cat. CRL-1441, RRID:CVCL_0270), SW982 (ATCC, cat. HTB-93, RRID:CVCL_1734), VA-ES-BJ (ATCC, cat. CRL-2138, RRID:CVCL_1785), NCI-H719 (ATCC, cat. CRL-5837, RRID:CVCL_1582), NCI-H196 (ATCC, cat. CRL-5823, RRID:CVCL_1509), NCI-H841 (ATCC, cat. CRL-5845, RRID:CVCL_1595), NCI-H1618 (ATCC, cat. CRL-5879, RRID:CVCL_1480), NCI-H1876 (ATCC, cat. CRL-5902, RRID:CVCL_1503), DMS 114 (ATCC, cat. CRL-2066; RRID:CVCL_1174), NCI-H211 (ATCC, cat. CRL-5824; RRID:CVCL_1529), and SW 1271 (ATCC, cat. CRL-2177, RRID:CVCL_1716). The small cell lung cancer cell line COR-L88 was purchased from Sigma-Aldrich (cat. 92031917-1VL, RRID:CVCL_1141). The non-small cell lung cancer cell lines NCI-H226 (RRID:CVCL_1544) and NCI-H322M (RRID:CVCL_1557) were established at the NCI and grown from internal seed stocks. Pooled donor human umbilical vein endothelial cells (HUVEC, Lonza, cat. CC-2519) and human mesenchymal stem cells (hMSC, Lonza, cat. PT-2501) were purchased from Lonza (Walkersville, MD).\nCell Culture. All cells were maintained in an incubator at 37 degrees C and 5% CO2 with 95% humidity. […]",
  "note": "A number of entries come with more than one value. This list holds those alone. There may be further records. The values listed for one entry are repeats (runs, samples, wells, individuals or studies). Signs of the kind (2×) say how often a value occurs here. Dates in brackets are months of testing.",
  "data": [
    {"smiles": "COc1cc2c(cc1O)CCNC21CSC2c3c(OC(C)=O)c(C)c4c(c3C(COC1=O)N1C(O)C3Cc5cc(C)c(OC)c(O)c5C(C21)N3C)OCO4", "note": "(configuration not stated)", "values": [
      {"measurement": "viability, T/C", "setting": "compound 30 pM", "result": "104 (2×), 113, 108, 100, 86.9, 105 (2×), 98.8, 59.9%"}
    ]},
    {"smiles": "CC[C@@]1(O)C(=O)OCc2c1cc1n(c2=O)Cc2cc3c(CN(C)C)c(O)ccc3nc2-1", "values": [
      {"measurement": "viability, T/C", "setting": "compound alone 0.003 µM", "result": "84.7, 79.6, 72.2, 76.6, 82.7% [2019-11] and 65.5, 102 (2×), 99.9, 101% [2019-12]"}
    ]},
    {"smiles": "Cn1nnc2c(C(N)=O)ncn2c1=O", "values": [
      {"measurement": "viability, T/C", "setting": "compound alone 3.16 µM", "result": "99.8, 124, 106, 101, 99.4, 109, 113, 99.6, 97.2, 86.8%"},
      {"measurement": "viability, T/C", "setting": "compound alone 31.6 µM", "result": "64.6, 73.1, 62.4, 60.6, 63.8, 47.8, 1.32, 64.7, 44.8, 38.1%"},
      {"measurement": "viability, T/C", "setting": "compound alone 100 µM", "result": "21, 33.2, 30.4, 31.8, 33.5, 30.1, 0.89, 27.3, 21.5, 13.8%"},
      {"measurement": "IC50", "setting": "compound alone, run of 11/07/2019", "result": "43.5, 60.6, 48.8, 48.7, 53.3, 30, 16.3, 49.7, 28.1, 22.5 µM"}
    ]},
    {"smiles": "CC1COCCN1c1cc(-c2ccnn2C)c2ccnc(-c3ccn[nH]3)c2n1", "note": "(configuration not stated)", "values": [
      {"measurement": "viability, T/C", "setting": "compound alone 0.0316 µM", "result": "19.6% [2019-11] and 46.5%, 8.03% [2019-12]"}
    ]}
  ]
}
